Patent publication US20170174769A1

Tests used:
[1] = molecular target: mouse KLB and mouse FGFR1c co-expressed on HEK293/mKLB/mFGFR1c/SRE-Luc cells (mouse); assay: FACS on stable HEK293 cells, 67 nM
[2] = molecular target: mouse KLB and mouse FGFR1c co-expressed on HEK293/mKLB/mFGFR1c/SRE-Luc cells (mouse); assay: cell-based or functional assay

B1: Fusion 3 (Homodimer) (Fc fusion)
chain: QVQLVESGGGVVQPGRSLRLSCVASGFTFSSYGMHWVRQAPGKGLEWVAVISFDGSNKYYADSVKGRFTISRDNSKNTLYLQMNSLRPADTAVYYCAKDRSNYYYFGMDVWGQGTTVTVSSGGGGSGGGGSGGGGSDIVMTQTPLSLPVTPGEPASISCRSSQSLLDSDDGNTYLDWYLQKPGQSPQLLIYTLSYRASGVPDRFSGSGSGTDFTLKISRVEAEDVGVYYCMQRIEFPLTFGGGTKVEIKGGGGSGGGGSGGGGS[human IgG4 Fc with S228P (EU numbers) not spelt out]GGGGSGGGGSGGGGSLLQFGGQVRQRYLYTDDAQQTEAHLEIREDGTVGGAADQSPESLLQLKALKPGVIQILGVKTSRFLCQRPDGALYGSLHFDPEACSFRELLLEDGYNVYQSEAHGLPLHLPGNKSPHRDPAPRGPARFLPLPGLPPAPPEPPGILAPQPPDVGSSDPLSMVGPSQGRSPSYAS
MFI Ratio to unstained cells [1]: 9 fold
EC50, SRE-luc activation [2]: 870 pM
maximum activation relative to His6-hFGF21 [2]: 44%
